# In a melting point compilation (Tetko et al.; mined from patent text by program, amines drawn as free bases though some values may be those of a salt):
row,melting point,SMILES
1,66 to 68 °C,CS(=O)(=O)OC1CCN(c2ccccn2)CC1
2,137 to 139 °C,CCCn1nc2c(N)nc3ccccc3c2c1CCCCN
3,263 °C,Cn1c(=O)[nH]c(=O)c2c1ncn2Cc1ccccc1
